Results are given in words; binding and its absence hold for the method and conditions named. Some binding calls cover weakened binding; strength is not graded here. Where a sequence is shown, tags or fusion partners need not be part of it.
T1: NPHP5-mCh-mito (mouse) (UniProt Q8BP00)
T1 sequence: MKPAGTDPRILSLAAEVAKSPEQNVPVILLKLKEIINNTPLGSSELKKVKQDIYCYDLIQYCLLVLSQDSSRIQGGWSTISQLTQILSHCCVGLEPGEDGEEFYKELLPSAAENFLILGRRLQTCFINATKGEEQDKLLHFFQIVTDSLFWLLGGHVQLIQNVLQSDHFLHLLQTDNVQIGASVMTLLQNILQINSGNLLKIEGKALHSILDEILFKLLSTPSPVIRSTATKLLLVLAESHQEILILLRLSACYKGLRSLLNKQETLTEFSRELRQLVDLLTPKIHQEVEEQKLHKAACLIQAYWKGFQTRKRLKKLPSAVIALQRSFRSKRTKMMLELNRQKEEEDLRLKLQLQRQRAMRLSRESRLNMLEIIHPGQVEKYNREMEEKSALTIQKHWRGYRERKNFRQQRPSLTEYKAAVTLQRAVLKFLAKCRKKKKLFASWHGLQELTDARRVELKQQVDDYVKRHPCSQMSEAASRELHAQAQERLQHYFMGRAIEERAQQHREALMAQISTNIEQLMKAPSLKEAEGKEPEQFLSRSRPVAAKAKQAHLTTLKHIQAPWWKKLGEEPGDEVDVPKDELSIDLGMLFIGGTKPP

T2: NPHP1-mCh-mito (UniProt O15259)
T2 sequence: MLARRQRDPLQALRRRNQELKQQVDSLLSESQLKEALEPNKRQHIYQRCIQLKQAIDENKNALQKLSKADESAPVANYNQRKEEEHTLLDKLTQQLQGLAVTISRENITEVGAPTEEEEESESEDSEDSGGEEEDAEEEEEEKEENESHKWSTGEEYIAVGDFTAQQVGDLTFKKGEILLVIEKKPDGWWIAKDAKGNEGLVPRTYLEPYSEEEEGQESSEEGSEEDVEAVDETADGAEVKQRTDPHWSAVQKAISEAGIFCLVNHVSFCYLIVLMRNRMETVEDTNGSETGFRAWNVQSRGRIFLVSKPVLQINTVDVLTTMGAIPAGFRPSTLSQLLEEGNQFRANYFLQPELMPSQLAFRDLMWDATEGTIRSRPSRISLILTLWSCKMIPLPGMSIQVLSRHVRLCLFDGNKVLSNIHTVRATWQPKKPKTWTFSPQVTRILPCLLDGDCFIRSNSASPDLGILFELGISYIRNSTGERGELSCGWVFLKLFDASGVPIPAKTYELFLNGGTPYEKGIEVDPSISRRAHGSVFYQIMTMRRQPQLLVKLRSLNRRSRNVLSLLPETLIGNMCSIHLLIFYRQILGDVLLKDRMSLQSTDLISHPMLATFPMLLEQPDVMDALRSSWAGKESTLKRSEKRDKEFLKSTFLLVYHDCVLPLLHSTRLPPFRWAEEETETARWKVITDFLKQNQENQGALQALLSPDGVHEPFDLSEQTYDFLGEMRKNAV

T3: NPHP2-mCh-mito (UniProt Q9Y283)
T3 sequence: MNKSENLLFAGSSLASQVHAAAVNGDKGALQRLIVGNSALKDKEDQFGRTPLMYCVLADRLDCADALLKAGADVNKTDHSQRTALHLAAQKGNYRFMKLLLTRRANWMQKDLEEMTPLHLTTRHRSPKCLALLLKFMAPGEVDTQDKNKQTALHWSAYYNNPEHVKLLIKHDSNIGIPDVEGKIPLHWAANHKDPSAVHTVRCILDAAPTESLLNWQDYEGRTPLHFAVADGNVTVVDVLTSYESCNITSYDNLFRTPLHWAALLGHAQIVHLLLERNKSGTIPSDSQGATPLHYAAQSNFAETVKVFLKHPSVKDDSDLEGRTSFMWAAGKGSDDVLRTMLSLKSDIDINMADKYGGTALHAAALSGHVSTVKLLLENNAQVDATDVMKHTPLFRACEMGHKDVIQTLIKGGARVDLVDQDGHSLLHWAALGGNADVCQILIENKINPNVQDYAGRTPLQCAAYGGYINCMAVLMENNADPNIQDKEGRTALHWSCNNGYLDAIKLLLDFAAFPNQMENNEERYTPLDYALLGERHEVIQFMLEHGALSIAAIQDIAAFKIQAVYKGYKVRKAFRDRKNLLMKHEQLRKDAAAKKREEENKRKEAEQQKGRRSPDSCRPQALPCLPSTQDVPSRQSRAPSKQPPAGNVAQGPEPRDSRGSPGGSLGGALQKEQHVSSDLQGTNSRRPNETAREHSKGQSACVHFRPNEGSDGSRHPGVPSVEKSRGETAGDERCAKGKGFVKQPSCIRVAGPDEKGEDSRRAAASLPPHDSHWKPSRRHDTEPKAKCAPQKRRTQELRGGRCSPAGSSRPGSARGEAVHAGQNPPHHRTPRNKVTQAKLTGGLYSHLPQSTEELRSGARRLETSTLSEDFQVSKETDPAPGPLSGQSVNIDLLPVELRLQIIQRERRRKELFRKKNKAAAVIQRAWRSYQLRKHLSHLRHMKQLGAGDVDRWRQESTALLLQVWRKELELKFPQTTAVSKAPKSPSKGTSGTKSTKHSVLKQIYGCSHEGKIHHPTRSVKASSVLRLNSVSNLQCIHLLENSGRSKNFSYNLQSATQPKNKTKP


What was measured:
Assay in all cases: knocksideways (recruitment to the mitochondrial surface, fluorescence microscopy); NPHP-mCh-mito bait on the mitochondrial surface co-expressed with EGFP-tagged nucleoporin in COS-7 cells; fixed 24 hours post-transfection
NPHP5-mCh-mito (mouse) = target: T1, NPHP5-mCh-mito (mouse)
NPHP1-mCh-mito = target: T2, NPHP1-mCh-mito
NPHP2-mCh-mito = target: T3, NPHP2-mCh-mito

binding (NPHP5-mCh-mito (mouse)) | binding (NPHP1-mCh-mito) | binding (NPHP2-mCh-mito) | Binder
no binding | no binding | no binding | EGFP-tagged Nup107 (protein, UniProt P57740 1-925) MDRSGFGEISSPVIREAEVTRTARKQSAQKRVLLQASQDENFGNTTPRNQVIPRTPSSFRQPFTPTSRSLLRQPDISCILGTGGKSPRLTQSSGFFGNLSMVTNLDDSNWAAAFSSQRSGLFTNTEPHSITEDVTISAVMLREDDPGEAASMSMFSDFLQSFLKHSSSTVFDLVEEYENICGSQVNILSKIVSRATPGLQKFSKTASMLWLLQQEMVTWRLLASLYRDRIQSALEEESVFAVTAVNASEKTVVEALFQRDSLVRQSQLVVDWLESIAKDEIGEFSDNIEFYAKSVYWENTLHTLKQRQLTSYVGSVRPLVTELDPDAPIRQKMPLDDLDREDEVRLLKYLFTLIRAGMTEEAQRLCKRCGQAWRAATLEGWKLYHDPNVNGGTELEPVEGNPYRRIWKISCWRMAEDELFNRYERAIYAALSGNLKQLLPVCDTWEDTVWAYFRVMVDSLVEQEIQTSVATLDETEELPREYLGANWTLEKVFEELQATDKKRVLEENQEHYHIVQKFLILGDIDGLMDEFSKWLSKSRNNLPGHLLRFMTHLILFFRTLGLQTKEEVSIEVLKTYIQLLIREKHTNLIAFYTCHLPQDLAVAQYALFLESVTEFEQRHHCLELAKEADLDVATITKTVVENIRKKDNGEFSHHDLAPALDTGTTEEDRLKIDVIDWLVFDPAQRAEALKQGNAIMRKFLASKKHEAAKEVFVKIPQDSIAEIYNQCEEQGMESPLPAEDDNAIREHLCIRAYLEAHETFNEWFKHMNSVPQKPALIPQPTFTEKVAHEHKEKKYEMDFGIWKGHLDALTADVKEKMYNVLLFVDGGWMVDVREDAKEDHERTHQMVLLRKLCLPMLCFLLHTILHSTGQYQECLQLADMVSSERHKLYLVFSKEELRKLLQKLRESSLMLLDQGLDPLGYEIQL
binds | no binding | binds | GFP-Nup35 (protein, UniProt Q8NFH5 1-326) MAAFAVEPQGPALGSEPMMLGSPTSPKPGVNAQFLPGFLMGDLPAPVTPQPRSISGPSVGVMEMRSPLLAGGSPPQPVVPAHKDKSGAPPVRSIYDDISSPGLGSTPLTSRRQPNISVMQSPLVGVTSTPGTGQSMFSPASIGQPRKTTLSPAQLDPFYTQGDSLTSEDHLDDSWVTVFGFPQASASYILLQFAQYGNILKHVMSNTGNWMHIRYQSKLQARKALSKDGRIFGESIMIGVKPCIDKSVMESSDRCALSSPSLAFTPPIKTLGTPTQPGSTPRISTMRPLATAYKASTSDYQVISDRQTPKKDESLVSKAMEYMFGW
binds | no binding | binds | GFP-Nup133 (protein, UniProt Q8WUM0 1-1156) MFPAAPSPRTPGTGSRRGPLAGLGPGSTPRTASRKGLPLGSAVSSPVLFSPVGRRSSLSSRGTPTRMFPHHSITESVNYDVKTFGSSLPVKVMEALTLAEVDDQLTINIDEGGWACLVCKEKLIIWKIALSPITKLSVCKELQLPPSDFHWSADLVALSYSSPSGEAHSTQAVAVMVATREGSIRYWPSLAGEDTYTEAFVDSGGDKTYSFLTAVQGGSFILSSSGSQLIRLIPESSGKIHQHILPQGQGMLSGIGRKVSSLFGILSPSSDLTLSSVLWDRERSSFYSLTSSNISKWELDDSSEKHAYSWDINRALKENITDAIWGSESNYEAIKEGVNIRYLDLKQNCDGLVILAAAWHSADNPCLIYYSLITIEDNGCQMSDAVTVEVTQYNPPFQSEDLILCQLTVPNFSNQTAYLYNESAVYVCSTGTGKFSLPQEKIVFNAQGDSVLGAGACGGVPIIFSRNSGLVSITSRENVSILAEDLEGSLASSVAGPNSESMIFETTTKNETIAQEDKIKLLKAAFLQYCRKDLGHAQMVVDELFSSHSDLDSDSELDRAVTQISVDLMDDYPASDPRWAESVPEEAPGFSNTSLIILHQLEDKMKAHSFLMDFIHQVGLFGRLGSFPVRGTPMATRLLLCEHAEKLSAAIVLKNHHSRLSDLVNTAILIALNKREYEIPSNLTPADVFFREVSQVDTICECLLEHEEQVLRDAPMDSIEWAEVVINVNNILKDMLQAASHYRQNRNSLYRREESLEKEPEYVPWTATSGPGGIRTVIIRQHEIVLKVAYPQADSNLRNIVTEQLVALIDCFLDGYVSQLKSVDKSSNRERYDNLEMEYLQKRSDLLSPLLSLGQYLWAASLAEKYCDFDILVQMCEQTDNQSRLQRYMTQFADQNFSDFLFRWYLEKGKRGKLLSQPISQHGQLANFLQAHEHLSWLHEINSQELEKAHATLLGLANMETRYFAKKKTLLGLSKLAALASDFSEDMLQEKIEEMAEQERFLLHQETLPEQLLAEKQLNLSAMPVLTAPQLIGLYICEENRRANEYDFKKALDLLEYIDEEEDININDLKLEILCKALQRDNWSSSDGKDDPIEVSKDSIFVKILQKLLKDGIQLSEYLPEVKDLLQADQLGSLKSNPYFEFVLKANYEYYVQGQI
no binding | no binding | no binding | EGFP-tagged Nup93 (protein, UniProt Q8N1F7 1-819) MDTEGFGELLQQAEQLAAETEGISELPHVERNLQEIQQAGERLRSRTLTRTSQETADVKASVLLGSRGLDISHISQRLESLSAATTFEPLEPVKDTDIQGFLKNEKDNALLSAIEESRKRTFGMAEEYHRESMLVEWEQVKQRILHTLLASGEDALDFTQESEPSYISDVGPPGRSSLDNIEMAYARQIYIYNEKIVNGHLQPNLVDLCASVAELDDKSISDMWTMVKQMTDVLLTPATDALKNRSSVEVRMEFVRQALAYLEQSYKNYTLVTVFGNLHQAQLGGVPGTYQLVRSFLNIKLPAPLPGLQDGEVEGHPVWALIYYCMRCGDLLAASQVVNRAQHQLGEFKTWFQEYMNSKDRRLSPATENKLRLHYRRALRNNTDPYKRAVYCIIGRCDVTDNQSEVADKTEDYLWLKLNQVCFDDDGTSSPQDRLTLSQFQKQLLEDYGESHFTVNQQPFLYFQVLFLTAQFEAAVAFLFRMERLRCHAVHVALVLFELKLLLKSSGQSAQLLSHEPGDPPCLRRLNFVRLLMLYTRKFESTDPREALQYFYFLRDEKDSQGENMFLRCVSELVIESREFDMILGKLENDGSRKPGVIDKFTSDTKPIINKVASVAENKGLFEEAAKLYDLAKNADKVLELMNKLLSPVVPQISAPQSNKERLKNMALSIAERYRAQGISANKFVDSTFYLLLDLITFFDEYHSGHIDRAFDIIERLKLVPLNQESVEERVAAFRNFSDEIRHNLSEVLLATMNILFTQFKRLKGTSPSSSSRPQRVIEDRDSQLRSQARTLITFAGMIPYRTSGDTNARLVQMEVLMN
